# Assay results as given in the supplement of paper PMC9446081.
# Out of some 39,000 compounds screened, about 220 (0.56%) showed activity. The list shows a part of the results.
# Tested on: Escherichia coli K-12 BW25113
# Experiment: relative growth (OD600 normalised to plate interquartile mean) (fraction); higher = less growth inhibition, active = 0.2 or less
# Settings: 50 µM; LB; incubation time: overnight (16-24 h)
# 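Further: static incubation at 37 °C against the wild-type strain, values averaged over two biological replicates.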
row,Compound,relative growth
1,C[C@@H]1CN([C@H](C)CO)C(=O)c2cc(NC(=O)Cc3ccccc3)ccc2O[C@H]1CN(C)Cc1ccc(Oc2ccccc2)cc1,inactive: 1.02
2,C[C@@H]1CN([C@@H](C)CO)C(=O)Cc2cc(NC(=O)CCN3CCOCC3)ccc2O[C@@H]1CN(C)S(C)(=O)=O,inactive: 0.967
3,C[C@@H]1CN([C@@H](C)CO)C(=O)Cc2cc(NS(=O)(=O)c3ccccc3)ccc2O[C@H]1CN(C)S(=O)(=O)c1ccccc1,inactive: 0.931
4,C[C@H](CO)N1C[C@H](C)[C@@H](CN(C)Cc2ccc(Oc3ccccc3)cc2)Oc2c(NC(=O)Nc3ccc4c(c3)OCO4)cccc2C1=O,inactive: 1
5,C[C@@H]1CCCCO[C@H](CN(C)Cc2ccc(Cl)c(Cl)c2)[C@@H](C)CN([C@H](C)CO)C(=O)c2cc(NS(=O)(=O)c3ccccc3)ccc2O1,inactive: 0.94
6,C[C@H]1CN([C@@H](C)CO)C(=O)c2cc(NC(=O)Cc3cn(C)c4ccccc34)ccc2O[C@@H]1CN(C)Cc1ccc(C(=O)Nc2ccccc2N)cc1,inactive: 0.966
7,C[C@@H]1CCCCO[C@H](CN(C)Cc2ccc(C(=O)O)cc2)[C@H](C)CN([C@@H](C)CO)C(=O)c2cc(NC(=O)Nc3cccc4ccccc34)ccc2O1,inactive: 1.01
8,C[C@@H]1CN([C@@H](C)CO)C(=O)Cc2cc(NC(=O)Nc3ccc(C(F)(F)F)cc3)ccc2O[C@H]1CN(C)C(=O)Nc1ccc(C(F)(F)F)cc1,inactive: 1.01
9,CCCNC(=O)Nc1ccc2c(c1)C(=O)N(C)C[C@@H](OC)[C@@H](C)CN(C(=O)C1CCOCC1)[C@H](C)CO2,inactive: 0.975
10,CO[C@@H]1CN(C)C(=O)c2ccc(NS(=O)(=O)c3cn(C)cn3)cc2OC[C@@H](C)N(Cc2cccc(F)c2)C[C@H]1C,inactive: 1.01
11,Cc1noc(C)c1NC(=O)N(C)C[C@@H]1Oc2ccc(NC(=O)c3ccncc3)cc2CC(=O)N([C@@H](C)CO)C[C@H]1C,inactive: 0.983
12,CC(C)NC(=O)N[C@@H]1C=C[C@@H](CC(=O)NCCCN(C)C)O[C@H]1CO,inactive: 1.02
13,COc1ccc(S(=O)(=O)Nc2ccc3c(c2)C(=O)N([C@H](C)CO)C[C@@H](C)[C@@H](CN(C)Cc2ccc(C(=O)O)cc2)OCCCC[C@@H](C)O3)cc1,inactive: 0.993
14,O=C(O)COCC(=O)NCc1ccco1,inactive: 0.921
15,COCCCNC(=O)[C@@]1(Sc2ccc(C)cc2)CC(=O)N(Cc2ccccc2C(F)(F)F)[C@@H]1c1ccc(CO)cc1,inactive: 1.04
16,C[C@@H]1CN([C@@H](C)CO)C(=O)c2cc(NC(=O)CCC(F)(F)F)ccc2O[C@@H](C)CCCCO[C@H]1CN(C)S(=O)(=O)c1ccc(Cl)cc1,inactive: 1.05
17,COc1ccc(NC(=O)Nc2ccc3c(c2)C(=O)N([C@H](C)CO)C[C@H](C)[C@H](CN(C)Cc2ccc(C(=O)O)cc2)OCCCC[C@H](C)O3)cc1,inactive: 1.02
18,C[C@@H]1CCCCO[C@H](CN(C)Cc2ccc3c(c2)OCO3)[C@@H](C)CN([C@H](C)CO)C(=O)c2cc(NS(=O)(=O)c3ccc(Cl)cc3)ccc2O1,inactive: 0.993
19,O=C(O)c1cc2ccccc2s1,inactive: 0.906

row,Compound,relative growth
1,CCCNC(=O)N(C)C[C@H]1Oc2cc(-c3ccccc3F)ccc2S(=O)(=O)N([C@H](C)CO)C[C@H]1C,inactive: 1.02
2,COCCOC(=O)N1C(=O)[C@@]2(c3ccccc31)[C@H](c1ccc(OCCO)cc1)N1[C@H](c3ccccc3)[C@H](c3ccccc3)OC(=O)[C@H]1[C@@H]2C(=O)Nc1nc2ccccc2s1,inactive: 1.01
3,C[C@@H]1CCCCO[C@H](CN(C)C(=O)c2ccccc2)[C@@H](C)CN([C@H](C)CO)C(=O)c2cc(NS(=O)(=O)c3cccs3)ccc2O1,inactive: 1.01
4,COCC(=O)N[C@@H]1C=C[C@@H](CC(=O)N2CCCCC2)O[C@H]1CO,inactive: 1.04
5,C[C@H](CO)N1C[C@H](C)[C@H](CN(C)C(=O)CN(C)C)Oc2cc(C#CCN(C)C)ccc2S1(=O)=O,inactive: 1.02
6,C[C@@H]1CN([C@H](C)CO)C(=O)c2cc(C#CC3(O)CCCC3)cnc2O[C@@H]1CN(C)C(=O)C1CCOCC1,inactive: 1.01
7,COc1ccc(S(=O)(=O)N(C)C[C@@H]2OCCCC[C@@H](C)Oc3ccc(NS(C)(=O)=O)cc3C(=O)N([C@H](C)CO)C[C@H]2C)cc1,inactive: 0.994
8,COc1cccc(C#Cc2ccc([C@@H]3[C@H](CO)N4C(=O)CN(S(=O)(=O)c5ccccc5C)C[C@@H]34)cc2)c1,inactive: 1.02
9,NC(=O)c1c(F)c(F)c(N)c(F)c1F,inactive: 0.986
10,Cc1noc(C)c1S(=O)(=O)Nc1cccc2c1O[C@@H](CN(C)S(=O)(=O)c1ccccc1)[C@@H](C)CN([C@@H](C)CO)C2=O,inactive: 0.989
11,CCCCCNCC(N)=O,inactive: 1.03
12,C[C@H]1CN([C@@H](C)CO)C(=O)c2cc(C3=CCCCC3)cnc2O[C@@H]1CN(C)C(=O)CN1CCOCC1,inactive: 0.985
13,C[C@H](CO)N1C[C@H](C)[C@@H](CN(C)C(=O)Nc2ccccc2)Oc2ccc(NC(=O)Nc3cccc4ccccc34)cc2CC1=O,inactive: 1.03
14,CC(C)NC(=O)Nc1ccc2c(c1)C(=O)N([C@@H](C)CO)C[C@@H](C)[C@H](CN(C)S(=O)(=O)c1cccs1)O2,inactive: 0.973
15,NC(=O)c1cccc(S(N)(=O)=O)c1,inactive: 1.01
16,C[C@H](CO)N1C[C@H](C)[C@@H](CN(C)C(=O)Nc2cccc3ccccc23)OCCCC[C@H](C)Oc2ccc(NC(=O)c3ccncc3)cc2C1=O,inactive: 1.01
17,COc1ccc(S(=O)(=O)N(C)C[C@H]2Oc3c(NC(=O)C4CCOCC4)cccc3C(=O)N([C@@H](C)CO)C[C@@H]2C)cc1,inactive: 0.997
18,C[C@@H]1CCCCO[C@H](CN(C)S(=O)(=O)c2cn(C)cn2)[C@@H](C)CN([C@@H](C)CO)C(=O)c2cc(N(C)C)ccc2O1,inactive: 0.994
19,C[C@H](CO)N1C[C@H](C)[C@@H](CN(C)Cc2cccc3c2OCCCO3)OCc2cnnn2CCCC1=O,inactive: 0.992
